Experiments:
[1] = molecular target: T1, membrane-type IL-6R on cells (U266B1, TF-1, Hep3B) (UniProt P08887 20-468, limits assumed); test: cell-based or functional assay
T1 sequence (looked up): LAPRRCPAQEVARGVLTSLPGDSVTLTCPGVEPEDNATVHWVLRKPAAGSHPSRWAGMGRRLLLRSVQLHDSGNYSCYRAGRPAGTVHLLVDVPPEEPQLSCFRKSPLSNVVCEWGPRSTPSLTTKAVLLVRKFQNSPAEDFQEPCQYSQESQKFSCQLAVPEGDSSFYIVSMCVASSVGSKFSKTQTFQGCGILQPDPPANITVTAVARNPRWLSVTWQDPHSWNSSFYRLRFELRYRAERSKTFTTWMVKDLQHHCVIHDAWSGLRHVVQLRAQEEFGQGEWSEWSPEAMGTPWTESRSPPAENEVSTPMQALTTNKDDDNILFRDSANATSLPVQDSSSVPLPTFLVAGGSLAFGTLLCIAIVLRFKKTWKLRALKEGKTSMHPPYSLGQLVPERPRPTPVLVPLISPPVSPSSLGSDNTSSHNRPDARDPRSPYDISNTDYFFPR

[2] = molecular target: T1, membrane-type IL-6R on cells (U266B1, …); test: cell-based or functional assay; remark: listed apart in the source
[3] = molecular target: T2, hIL-6R.His (human interleukin-6 receptor with His tag) (human, UniProt P08887 20-365); test: SPR (Biacore T200), antibody captured by anti-human capture antibody, hIL-6R.his as analyte, 1:1 Langmuir
T2 construct: Soluble recombinant antigen expressed in 293E cells; The entry includes the His tag
T2 sequence: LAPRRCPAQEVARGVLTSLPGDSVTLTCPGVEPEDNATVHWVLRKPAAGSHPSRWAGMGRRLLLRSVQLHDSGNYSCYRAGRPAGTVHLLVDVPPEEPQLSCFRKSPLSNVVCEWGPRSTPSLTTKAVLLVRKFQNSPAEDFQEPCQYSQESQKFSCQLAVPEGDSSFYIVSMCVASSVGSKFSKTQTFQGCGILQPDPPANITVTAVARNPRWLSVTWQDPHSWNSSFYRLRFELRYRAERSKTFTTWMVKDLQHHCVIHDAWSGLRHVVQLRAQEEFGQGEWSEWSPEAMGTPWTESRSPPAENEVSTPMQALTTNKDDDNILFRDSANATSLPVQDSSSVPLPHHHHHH
Excerpt: Human anti-capture antibodies were covalently coupled onto Biosensor chip CM5 (Cat.# BR-1000-12, GE) in a Biacore instrument (Biacore T200, GE) with Human Anti-Capture Kit (Cat. #BR-1008-39, GE) according to manufacturer's protocol, thereby certain amounts of antibodies to be tested were captured. Antigens (hIL-6R.his and cIL-6R.FH) at a series of concentration gradients were then flowed through the surface of the chip . The reaction signals were detected in real time using Biacore instrument (Biacore T200, GE) to obtain binding and dissociation curves.
After each cycle of dissociation, the biochips were washed and regenerated with the regeneration solution provided in the Human Anti-Capture Kit. The amino coupling kit used in the experiment was purchased from GE (Cat. #BR-1000-50, GE) and the buffer was HBS-EP+10×buffer solution (Cat.#BR-1006-69, GE), diluted to 1×(pH 7.4) with D.I. water.
The experimental data were fitted with BlAevaluation version 4.1 and GE software (1:1) Langmuir model to obtain the affinity values.

[4] = molecular target: T3, hIL-6R.BP15 (human interleukin-6 receptor with BP15 tag, biotinylated) (human, UniProt P08887 20-365, site-directed biotinylation on the BP15 tag); test: blocking ELISA: coated gp130, IL-6.his and IL-6R.BP15 (0.06 ug/ml) with serially diluted antibody, HRP-streptavidin, OD450; blocked: binding of the IL-6/IL-6R complex to gp130; unit from the abscissa
T3 sequence: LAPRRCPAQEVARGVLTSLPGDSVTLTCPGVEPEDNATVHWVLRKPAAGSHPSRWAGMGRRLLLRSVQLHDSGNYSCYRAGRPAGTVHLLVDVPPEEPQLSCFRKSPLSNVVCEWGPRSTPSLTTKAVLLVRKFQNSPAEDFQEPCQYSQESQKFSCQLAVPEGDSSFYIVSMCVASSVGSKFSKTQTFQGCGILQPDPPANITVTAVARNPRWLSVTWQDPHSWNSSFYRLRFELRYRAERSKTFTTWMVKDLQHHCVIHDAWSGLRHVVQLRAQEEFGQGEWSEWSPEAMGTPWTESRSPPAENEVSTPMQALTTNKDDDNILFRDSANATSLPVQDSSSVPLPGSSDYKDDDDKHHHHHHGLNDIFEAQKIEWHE
Protocol: The complex of IL-6 and IL-6R can bind to GP130. The assay will evaluate if the selected antibodies were able to block the formation of IL-6/IL-6R/gp130 complex by binding to IL-6R. The plates were coated with 1 μg/ml gp130 (diluted in PBS) at 4° C. overnight. The coating solution was discarded, and plates were blocked with 5% skim milk in PBS at 37° C. for 2-3h. After blocking, the plates were washed 3 times with washing buffer PBST (0.1% Tween-20 in PBS).
IL-6.his and IL-6R.BP15 were diluted with 1% BSA in PBS to a concentration of 0.06 μg/ml. Starting at 50 ug/ml, IL-6R antibodies were 1:3 serially diluted in dilution buffer and Both testing antibody samples and IL-6/IL-6R complex were added to the plate followed by lh incubation at 37° C. After that, the plates were washed for 3 times with washing buffer PBST (0.1% Tween-20 in PBS).
1:2000 diluted Secondary antibody HRP streptavidin (Jackson, 016-030-084) was added to the plate followed by 1 h incubation at 37° C.After incubation and wash,. TMB was used for development. OD₄₅₀ values were read.

EC50, blocking effect on IL-6-stimulated TF-1 proliferation [1]: 0.337 nM | Relative expression level of hepcidin mRNA (fold) in Hep3B cells with 5 nM antibody and 10 ng/ml IL-6 (blank 1; IL-6 only 2.783) [2]: 1.15 fold | Kd [3]: 0.127 nM | koff [3]: 0.000154 s⁻¹ | kon [3]: 1.21e+06 M⁻¹ s⁻¹ | IC50 [4]: 0.0366 µg/mL
B1: 1764-mu3 VHH-hFc fusion protein (Fc fusion)
chain: EVQLVESGGGLVQPGGSLRLSCEASGNIFKINVMGWYRQAPGKQREWVAAIISGGSTNYADSVKGRFTISRDNAKNTVYLQMNSLRPEDTAVYYCNAILTYNDYDLGSDYWGQGTLVTVSS[here human IgG1 Fc with changes without letters]
notes: also called variant 3 (A14P, K86R, Q116L)

Source: patent US20200369774A1 (JIANGSU HENGRUI MEDICINE, published 2020)
